Sequences and labels used below:
B1: GPR68, Q15743 (parent)
chain: MGNITADNSSMSCTIDHTIHQTLAPVVYVTVLVVGFPANCLSLYFGYLQIKARNELGVYLCNLTVADLFYICSLPFWLQYVLQHDNWSHGDLSCQVCGILLYENIYISVGFLCCISVDRYLAVAHPFRFHQFRTLKAAVGVSVVIWAKELLTSIYFLMHEEVIEDENQHRVCFEHYPIQAWQRAINYYRFLVGFLFPICLLLASYQGILRAVRRSHGTQKSRKDQIQRLVLSTVVIFLACFLPYHVLLLVRSVWEASCDFAKGVFNAYHFSLLLTSFNCVADPVLYCFVSETTHRDLARLRGACLAFLTCSRTGRAREAYPLGAPEASGKSGAQGEEPELLTKLHPAFQTPNSPGSGGFPTGRLA

Series [1] covers variants of B1. The series can be described thus: cAMP reporter score (Enrich2 score, wild type = 0); higher = more signal; HEK293T, FACS bins.
Variants of B1 are the subject of series [2]. Nature of the series: surface expression score (Enrich2 score, wild type = 0); higher = more signal; HEK293T, FACS bins.

Scores whose standard error is large were omitted. Two further conditions of the source, in which the scores hardly spread, are not listed. Names with del lack the residues named; names with ins carry added residues between the positions named. For some assays here: The data file names ogerin without a concentration.

As to C40_L41insGSG, the cAMP reporter score in series [1] (pH 5.5) is -1.01; in series [1] (pH 6) it was -1.51; in series [1] (pH 6, modulator: ogerin), -1.59; in series [1] (pH 6.5, modulator: ogerin), -1.4. Moreover, the surface expression score in series [2] was -2.46.

As for C40_L41insGS, the cAMP reporter score in series [1] (pH 5.5) is -1.93; in series [1] (pH 6), -1.51; in series [1] (pH 6.5, modulator: ogerin), -0.868. Further, the surface expression score in series [2] was -3.34.

Regarding Y47_L48del, the cAMP reporter score in series [1] (pH 5.5) is -1.34; in series [1] (pH 6), -1.85; in series [1] (pH 6, modulator: ogerin), -1.22; in series [1] (pH 6.5, modulator: ogerin) it was -1.55.

I50R: the cAMP reporter score in series [1] (pH 5.5) is -0.909; in series [1] (pH 6), -1.04; in series [1] (pH 6, modulator: ogerin), -1.62; in series [1] (pH 6.5, modulator: ogerin), 1.22. Further, the surface expression score in series [2] is -2.37.

Consider I50S, for which the cAMP reporter score in series [1] (pH 5.5) was -1.48; in series [1] (pH 6) it was -0.375; in series [1] (pH 6, modulator: ogerin) it was -1.48; in series [1] (pH 6.5, modulator: ogerin) it was -1.26. Also, the surface expression score in series [2] was -2.23.

On to I50V, for which the cAMP reporter score in series [1] (pH 5.5) is 0.477; in series [1] (pH 6), 0.004; in series [1] (pH 6, modulator: ogerin) it was 0.136; in series [1] (pH 6.5, modulator: ogerin) it was -0.406. Also, in series [2], the surface expression score was -0.235.

For the variant I50A, the cAMP reporter score in series [1] (pH 5.5) was 0.742; in series [1] (pH 6), -0.055; in series [1] (pH 6, modulator: ogerin) it was -0.356; in series [1] (pH 6.5, modulator: ogerin), -0.319. For the same variant, in series [2], the surface expression score was -2.08.

For I50W, the cAMP reporter score in series [1] (pH 5.5) was 0.343; in series [1] (pH 6), 0.548; in series [1] (pH 6, modulator: ogerin) it was -0.071; in series [1] (pH 6.5, modulator: ogerin), -0.63. The surface expression score in series [2] was -1.9.

Take I50L: the cAMP reporter score in series [1] (pH 5.5) was -0.451; in series [1] (pH 6), -0.583; in series [1] (pH 6, modulator: ogerin), 0.168; in series [1] (pH 6.5, modulator: ogerin) it was -0.687. The surface expression score in series [2] is -0.777.

For I50K, the cAMP reporter score in series [1] (pH 5.5) is -1.33; in series [1] (pH 6) it was -0.596; in series [1] (pH 6, modulator: ogerin) it was -1.87; in series [1] (pH 6.5, modulator: ogerin), -0.733. Moreover, in series [2], the surface expression score is -2.71.

On to I50N, for which the cAMP reporter score in series [1] (pH 5.5) is -1.16; in series [1] (pH 6), -1.43; in series [1] (pH 6, modulator: ogerin), -1.72; in series [1] (pH 6.5, modulator: ogerin), -0.691. In series [2], the surface expression score is -2.19.

Regarding I50F, the cAMP reporter score is -1.15 in series [1] (pH 5.5); -1.4 in series [1] (pH 6); -1.22 in series [1] (pH 6, modulator: ogerin); -1.64 in series [1] (pH 6.5, modulator: ogerin). For the same variant, the surface expression score in series [2] was -2.93.

Take I50T: the cAMP reporter score was -0.687 in series [1] (pH 5.5); -0.182 in series [1] (pH 6); -0.811 in series [1] (pH 6, modulator: ogerin); -0.864 in series [1] (pH 6.5, modulator: ogerin). Also, the surface expression score in series [2] is -0.795.

With I50Y, the cAMP reporter score in series [1] (pH 5.5) is 0.126; in series [1] (pH 6) it was -1.17; in series [1] (pH 6, modulator: ogerin), -0.646; in series [1] (pH 6.5, modulator: ogerin) it was -0.849. Moreover, the surface expression score in series [2] is -1.94.

In the case of I50E, the cAMP reporter score is -0.661 in series [1] (pH 5.5); 0.165 in series [1] (pH 6); -0.615 in series [1] (pH 6, modulator: ogerin).

As to I50D, the cAMP reporter score was -0.233 in series [1] (pH 5.5) and -0.896 in series [1] (pH 6.5, modulator: ogerin).

Turning to I50C, the cAMP reporter score is 0.057 in series [1] (pH 5.5); -0.929 in series [1] (pH 6); -0.638 in series [1] (pH 6, modulator: ogerin); -0.888 in series [1] (pH 6.5, modulator: ogerin). Besides, the surface expression score in series [2] is -1.46.

For the variant I50M, the cAMP reporter score in series [1] (pH 5.5) was 0.009; in series [1] (pH 6), -0.498; in series [1] (pH 6, modulator: ogerin) it was -0.22; in series [1] (pH 6.5, modulator: ogerin), -0.788. For the same variant, in series [2], the surface expression score is -0.753.

I50Q: the cAMP reporter score in series [1] (pH 5.5) is -1.03; in series [1] (pH 6, modulator: ogerin), -0.946; in series [1] (pH 6.5, modulator: ogerin), -0.685. Besides, in series [2], the surface expression score is -2.23.

I50G: the cAMP reporter score in series [1] (pH 5.5) is -1.74; in series [1] (pH 6), -0.775; in series [1] (pH 6.5, modulator: ogerin) it was -1.67. The surface expression score in series [2] was -2.27.

On to I50P, for which the cAMP reporter score in series [1] (pH 5.5) is -2.47; in series [1] (pH 6), -1.9; in series [1] (pH 6, modulator: ogerin), -2.02; in series [1] (pH 6.5, modulator: ogerin), -1.2. In series [2], the surface expression score was -2.89.

As to I50H, the cAMP reporter score in series [1] (pH 5.5) was -1.5; in series [1] (pH 6), -0.724; in series [1] (pH 6, modulator: ogerin), -1.64; in series [1] (pH 6.5, modulator: ogerin), -0.723. In addition, the surface expression score in series [2] is -2.36.

In the case of G46_Y47del, the cAMP reporter score in series [1] (pH 5.5) is -0.785; in series [1] (pH 6), -1.04; in series [1] (pH 6, modulator: ogerin) it was -1.45; in series [1] (pH 6.5, modulator: ogerin) it was -1.35. Also, the surface expression score in series [2] is -2.61.

With C40M, the cAMP reporter score was found to be 0.834 in series [1] (pH 5.5); 1.45 in series [1] (pH 6); 0.795 in series [1] (pH 6, modulator: ogerin); 0.584 in series [1] (pH 6.5, modulator: ogerin). Also, the surface expression score in series [2] is 1.44.

As for C40V, the cAMP reporter score in series [1] (pH 5.5) stood at 1.01; in series [1] (pH 6), 0.17; in series [1] (pH 6, modulator: ogerin), 0.882; in series [1] (pH 6.5, modulator: ogerin) it was 0.121. Also, in series [2], the surface expression score was 1.39.

As for C40W, the cAMP reporter score in series [1] (pH 5.5) is -1.56; in series [1] (pH 6), -0.906; in series [1] (pH 6, modulator: ogerin), -1.29; in series [1] (pH 6.5, modulator: ogerin), -0.311. Moreover, the surface expression score in series [2] was -1.74.

As to C40S, the cAMP reporter score in series [1] (pH 5.5) was -1.22; in series [1] (pH 6), -0.81; in series [1] (pH 6, modulator: ogerin) it was -1.31.

Regarding C40L, the cAMP reporter score in series [1] (pH 5.5) was found to be 2.32; in series [1] (pH 6), 3.06; in series [1] (pH 6, modulator: ogerin) it was 3.06; in series [1] (pH 6.5, modulator: ogerin) it was 3.76. In addition, the surface expression score in series [2] was 4.05.

As to C40T, the cAMP reporter score in series [1] (pH 5.5) was -0.522; in series [1] (pH 6, modulator: ogerin), -1.85; in series [1] (pH 6.5, modulator: ogerin) it was -1.07. For the same variant, the surface expression score in series [2] is -2.04.

Regarding C40Y, the cAMP reporter score is -1.21 in series [1] (pH 5.5); -0.378 in series [1] (pH 6); -1.5 in series [1] (pH 6, modulator: ogerin); -0.893 in series [1] (pH 6.5, modulator: ogerin). The surface expression score in series [2] was -2.27.

Regarding C40P, the cAMP reporter score in series [1] (pH 5.5) is -0.887; in series [1] (pH 6), -1.61; in series [1] (pH 6, modulator: ogerin), -0.759; in series [1] (pH 6.5, modulator: ogerin) it was -0.757. Besides, in series [2], the surface expression score is -2.91.

As for C40N, the cAMP reporter score was -0.427 in series [1] (pH 5.5); -0.669 in series [1] (pH 6, modulator: ogerin); -3.03 in series [1] (pH 6.5, modulator: ogerin).

These data come from the GPR68 mutational scans of Howard et al. (2025).
